Laboratory results: the supplement of paper PMC8728848
Some of the results follow.

Columns and labels:
Assay in all cases: glycan array binding signal (z-score within array); higher = stronger binding
Settings in all cases: glycan notation: IUPAC condensed, linker removed
[1] = molecular target: Man(b1-4)GlcNAc
In short: (§1)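 The Consortium for Functional Glycomics database supplied 3228 glycan arrays, of which those lacking an available protein sequence were dropped. The binding signal, a within-array Z-score, was averaged across arrays of the same protein sequence and across linkers. Negative scores can be read as non-binding.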

[2] = molecular target: Neu5Ac(a2-3)Gal
In short: as §1

[3] = molecular target: Neu5Ac(a2-3)Gal(b1-3)GalNAc
In short: as §1

[4] = molecular target: Neu5Ac(a2-3)Gal(b1-3)GalNAc(b1-3)Gal(a1-4)Gal(b1-4)Glc
In short: as §1

[5] = molecular target: Neu5Ac(a2-3)Gal(b1-3)GalNAc(b1-3)Gal(b1-4)GlcNAc
In short: as §1

[6] = molecular target: Neu5Ac(a2-3)Gal(b1-3)GalNAc(b1-4)[Neu5Ac(a2-3)]Gal(b1-4)Glc
In short: as §1

[7] = molecular target: Neu5Ac(a2-3)Gal(b1-3)GalNAc6S
In short: as §1

[8] = molecular target: Neu5Ac(a2-3)Gal(b1-3)GlcNAc
In short: as §1

[9] = molecular target: Neu5Ac(a2-3)Gal(b1-3)GlcNAc(b1-3)Gal(b1-3)GlcNAc
In short: as §1

[10] = molecular target: Neu5Ac(a2-3)Gal(b1-3)GlcNAc6S
In short: as §1

[11] = molecular target: Neu5Ac(a2-3)Gal(b1-3)[Fuc(a1-4)]GlcNAc
In short: as §1

[12] = molecular target: Neu5Ac(a2-3)Gal(b1-3)[Fuc(a1-4)]GlcNAc(b1-3)Gal(b1-3)[Fuc(a1-4)]GlcNAc
In short: as §1

[13] = molecular target: Neu5Ac(a2-3)Gal(b1-3)[Fuc(a1-4)]GlcNAc(b1-3)Gal(b1-4)[Fuc(a1-3)]GlcNAc
In short: as §1

[14] = molecular target: Neu5Ac(a2-3)Gal(b1-3)[Neu5Ac(a2-3)Gal(b1-4)]GlcNAc
In short: as §1

[15] = molecular target: Neu5Ac(a2-3)Gal(b1-3)[Neu5Ac(a2-6)]GalNAc
In short: as §1

[16] = molecular target: Neu5Ac(a2-3)Gal(b1-4)Glc
In short: as §1

[17] = molecular target: Neu5Ac(a2-3)Gal(b1-4)GlcNAc
In short: as §1

[18] = molecular target: Neu5Ac(a2-3)Gal(b1-4)GlcNAc(b1-2)Man(a1-3)[GlcNAc(b1-2)Man(b1-4)GlcNAc(b1-2)Man(a1-6)]Man(b1-4)GlcNAc(b1-4)GlcNAc
In short: as §1

[19] = molecular target: Neu5Ac(a2-3)Gal(b1-4)GlcNAc(b1-2)Man(a1-3)[Neu5Ac(a2-6)Gal(b1-4)GlcNAc(b1-2)Man(a1-6)]Man(b1-4)GlcNAc(b1-4)GlcNAc
In short: as §1

[20] = molecular target: Neu5Ac(a2-3)Gal(b1-4)GlcNAc(b1-3)Gal(b1-3)GlcNAc
In short: as §1

[21] = molecular target: Neu5Ac(a2-3)Gal(b1-4)GlcNAc(b1-3)Gal(b1-4)GlcNAc
In short: as §1

[22] = molecular target: Neu5Ac(a2-3)Gal(b1-4)GlcNAc(b1-3)Gal(b1-4)GlcNAc(b1-3)Gal(b1-4)GlcNAc
In short: as §1

[23] = molecular target: Neu5Ac(a2-3)Gal(b1-4)GlcNAc(b1-3)Gal(b1-4)[Fuc(a1-3)]GlcNAc
In short: as §1

[24] = molecular target: Neu5Ac(a2-3)Gal(b1-4)GlcNAc(b1-3)GalNAc
In short: as §1

[25] = molecular target: Neu5Ac(a2-3)Gal(b1-4)GlcNAc(b1-6)[Gal(b1-3)]GalNAc
In short: as §1

[26] = molecular target: Neu5Ac(a2-3)Gal(b1-4)GlcNAc(b1-6)[Neu5Ac(a2-3)Gal(b1-3)]GalNAc
In short: as §1

[27] = molecular target: Neu5Ac(a2-3)Gal(b1-4)GlcNAc6S
In short: as §1

[28] = molecular target: Neu5Ac(a2-3)Gal(b1-4)[Fuc(a1-3)]GlcNAc
In short: as §1

[29] = molecular target: Neu5Ac(a2-3)Gal(b1-4)[Fuc(a1-3)]GlcNAc(b1-3)Gal
In short: as §1

[30] = molecular target: Neu5Ac(a2-3)Gal(b1-4)[Fuc(a1-3)]GlcNAc(b1-3)Gal(b1-4)GlcNAc
In short: as §1

[31] = molecular target: Neu5Ac(a2-3)Gal(b1-4)[Fuc(a1-3)]GlcNAc(b1-3)Gal(b1-4)[Fuc(a1-3)]GlcNAc(b1-3)Gal(b1-4)[Fuc(a1-3)]GlcNAc
In short: as §1

[32] = molecular target: Neu5Ac(a2-3)Gal(b1-4)[Fuc(a1-3)]GlcNAc(b1-6)[Gal(b1-3)]GalNAc
In short: as §1

[33] = molecular target: Neu5Ac(a2-3)Gal(b1-4)[Fuc(a1-3)]GlcNAc(b1-6)[Neu5Ac(a2-3)Gal(b1-3)]GalNAc
In short: as §1

[34] = molecular target: Neu5Ac(a2-3)Gal(b1-4)[Fuc(a1-3)]GlcNAc6S
In short: as §1

[35] = molecular target: Neu5Ac(a2-3)Gal6S(b1-4)GlcNAc
In short: as §1

[36] = molecular target: Neu5Ac(a2-3)Gal6S(b1-4)[Fuc(a1-3)]GlcNAc
In short: as §1

[37] = molecular target: Neu5Ac(a2-3)GalNAc
In short: as §1

[38] = molecular target: Neu5Ac(a2-3)GalNAc(b1-4)GlcNAc
In short: as §1

[39] = molecular target: Neu5Ac(a2-3)[GalNAc(b1-4)]Gal(b1-4)Glc
In short: as §1

[40] = molecular target: Neu5Ac(a2-3)[GalNAc(b1-4)]Gal(b1-4)GlcNAc
In short: as §1

[41] = molecular target: Neu5Ac(a2-3)[Neu5Ac(a2-6)]GalNAc
In short: as §1

[42] = molecular target: Neu5Ac(a2-6)Gal
In short: as §1

B1: GALT1 615 (Arabidopsis thaliana), Q8L7F9 (protein)
chain: DPMRGSHHHHHHGMASMTGGQQMGRDLYDDDDKSRLQKPYITAAASVVVTPNTTLPMEWLRITLPDFMKEARNTQEAISGDDIAVVSGLFVEQNVSKEEREPLLTWNRLESLVDNAQSLVNGVDAIKEAGIVWESLVSAVEAKKLVDVNENQTRKGKEELCPQFLSKMNATEADGSSLKLQIPCGLTQGSSITVIGIPDGLVGSFRIDLTGQPLPGEPDPPIIVHYNVRLLGDKSTEDPVIVQNSWTASQDWGAEERCPKFDPDMNKKVDDLDECNKMVGGEINRTSSTSLQSNTSRGVPVAREASKHEKYFPFKQGFLSVATLRVGTEGMQMTVDGKHITSFAFRDTLEPWLVSEIRITGDFRLISILA
**Q.** Which results are given for B1?
**A.** glycan array binding signal (z-score) [1]: -0.058; glycan array binding signal (z-score) [2]: 0.238; glycan array binding signal (z-score) [3]: -0.547; glycan array binding signal (z-score) [4]: -0.285; glycan array binding signal (z-score) [5]: -0.257; glycan array binding signal (z-score) [6]: -0.294; glycan array binding signal (z-score) [7]: -0.084; glycan array binding signal (z-score) [8]: -0.215; glycan array binding signal (z-score) [9]: -0.265; glycan array binding signal (z-score) [10]: -0.079; glycan array binding signal (z-score) [11]: -0.325; glycan array binding signal (z-score) [12]: -0.231; glycan array binding signal (z-score) [13]: -0.545; glycan array binding signal (z-score) [14]: -0.343; glycan array binding signal (z-score) [15]: -0.475; glycan array binding signal (z-score) [16]: -0.177; glycan array binding signal (z-score) [17]: -0.197; glycan array binding signal (z-score) [18]: 0.73; glycan array binding signal (z-score) [19]: -0.097; glycan array binding signal (z-score) [20]: -0.425; glycan array binding signal (z-score) [21]: -0.188; glycan array binding signal (z-score) [22]: -0.242; glycan array binding signal (z-score) [23]: -0.317; glycan array binding signal (z-score) [24]: 0.095; glycan array binding signal (z-score) [25]: -0.312; glycan array binding signal (z-score) [26]: -0.225; glycan array binding signal (z-score) [27]: -0.078; glycan array binding signal (z-score) [28]: -0.085; glycan array binding signal (z-score) [29]: -0.267; glycan array binding signal (z-score) [30]: 0.904; glycan array binding signal (z-score) [31]: -0.28; glycan array binding signal (z-score) [32]: -0.548; glycan array binding signal (z-score) [33]: -0.534; glycan array binding signal (z-score) [34]: -0.462; glycan array binding signal (z-score) [35]: -0.257; glycan array binding signal (z-score) [36]: -0.04; glycan array binding signal (z-score) [37]: -0.187; glycan array binding signal (z-score) [38]: -0.452; glycan array binding signal (z-score) [39]: -0.15; glycan array binding signal (z-score) [40]: -0.09; glycan array binding signal (z-score) [41]: -0.368; glycan array binding signal (z-score) [42]: -0.271
